# Laboratory results published in patent US7517874B2 (priority 2007, dated 2009).
# Molecular target: human CB2 receptor (hCB2) (Homo sapiens, UniProt P34972)
# Assay: cell-based
# Type: cell-based
# Details: not given
# Chain of human CB2 receptor (hCB2) (P34972 whole entry): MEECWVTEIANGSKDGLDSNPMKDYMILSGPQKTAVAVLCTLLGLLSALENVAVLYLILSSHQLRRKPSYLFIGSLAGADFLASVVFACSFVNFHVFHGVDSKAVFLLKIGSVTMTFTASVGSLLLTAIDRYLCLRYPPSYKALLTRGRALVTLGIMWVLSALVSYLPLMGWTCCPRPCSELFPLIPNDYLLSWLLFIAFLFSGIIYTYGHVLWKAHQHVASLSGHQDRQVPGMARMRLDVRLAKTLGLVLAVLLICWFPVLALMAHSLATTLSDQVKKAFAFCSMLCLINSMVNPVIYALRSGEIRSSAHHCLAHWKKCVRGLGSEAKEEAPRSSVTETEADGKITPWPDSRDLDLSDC
row,Structure (SMILES),EC50 [µM]
1,"CCC(CO)NC(=O)c1nc(-c2ccccc2)n2c1CN(C)CC2 (centres unmarked) [Compound 232, N-(1-hydroxybutan-2-yl)-7-methyl-3-phenyl-5,6,7,8-tetrahydroimidazo[1,5-a]pyrazine-1-carboxamide]",> 10
2,"CCS(=O)(=O)N1CCCn2c(-c3ccccc3)nc(C(=O)N[C@H](C(=O)NC)C(C)(C)C)c2C1 [Compound 461, (S)-N-(3,3-dimethyl-1-(methylamino)-1-oxobutan-2-yl)-8-(ethylsulfonyl)-3-phenyl-6,7,8,9-tetrahydro-5H-imidazo[1,5-a][1,4]diazepine-1-carboxamide]",> 10
3,"CNC(=O)[C@@H](NC(=O)c1nc(-c2ccc(N(C)C)cc2)n2c1CN(C)CCC2)C(C)(C)C [Compound 381, (S)-N-(3,3-dimethyl-1-(methylamino)-1-oxobutan-2-yl)-3-(4-(dimethylamino)phenyl)-8-methyl-6,7,8,9-tetrahydro-5H-imidazo[1,5-a][1,4]diazepine-1-carboxamide]",> 10
4,"CN1CCn2c(-c3ccc(Cl)cc3F)nc(C(=O)N3CCC4(CC3)C(=O)NCN4c3ccccc3)c2C1 [Compound 214, 8-(3-(4-chloro-2-fluorophenyl)-7-methyl-5,6,7,8-tetrahydroimidazo[1,5-a]pyrazine-1-carbonyl)-1-phenyl-1,3,8-triazaspiro[4.5]decan-4-one]",> 10
5,"CN1CCn2c(-c3ccccc3)nc(C(=O)NCC3CCOCC3)c2C1 [Compound 236, 7-methyl-3-phenyl-N-((tetrahydro-2H-pyran-4-yl)methyl)-5,6,7,8-tetrahydroimidazo[1,5-a]pyrazine-1-carboxamide]",> 10

# Same assay, conditions: agonist or inverse agonist at hCB2
row,Structure (SMILES),+/− HCB2
1,"CNC(=O)[C@@H](NC(=O)c1nc(Cc2ccccc2)n2c1CNCC2)C(C)(C)C [Compound 13, (S)-3-benzyl-N-(3,3-dimethyl-1-(methylamino)-1-oxobutan-2-yl)-5,6,7,8-tetrahydroimidazo[1,5-a]pyrazine-1-carboxamide]",+
2,"CC(C)CCNC(=O)c1nc(-c2ccc(Cl)cc2)n2c1CN(CC(C)C)CC2 [Compound 157, 3-(4-chlorophenyl)-7-isobutyl-N-isopentyl-5,6,7,8-tetrahydroimidazo[1,5-a]pyrazine-1-carboxamide]",−
3,"CNC(=O)[C@@H](NC(=O)c1nc(-c2ccccc2)n2c1CN(CC(C)(C)C)CC2)C(C)(C)C [Compound 55, (S)-N-(3,3-dimethyl-1-(methylamino)-1-oxobutan-2-yl)-7-neopentyl-3-phenyl-5,6,7,8-tetrahydroimidazo[1,5-a]pyrazine-1-carboxamide]",−
4,"CNC(=O)[C@@H](NC(=O)c1nc(C2=CCOCC2)n2c1CN(C)CCC2)C(C)(C)C [Compound 594, (S)-3-(3,6-dihydro-2H-pyran-4-yl)-N-(3,3-dimethyl-1-(methylamino)-1-oxobutan-2-yl)-8-methyl-6,7,8,9-tetrahydro-5H-imidazo[1,5-a][1,4]diazepine-1-carboxamide]",+
5,"CN1CCCn2c(-c3cc(Cl)c(F)cc3F)nc(C(=O)N[C@H](C(N)=O)C(C)(C)C)c2C1 [Compound 580, (S)-N-(1-amino-3,3-dimethyl-1-oxobutan-2-yl)-3-(5-chloro-2,4-difluorophenyl)-8-methyl-6,7,8,9-tetrahydro-5H-imidazo[1,5-a][1,4]diazepine-1-carboxamide]",+
6,"CNC(=O)[C@@H](NC(=O)c1nc(-c2ccccc2)n2c1CN(C)CC2)C(C)(C)C [Compound 48, (S)-N-(3,3-dimethyl-1-(methylamino)-1-oxobutan-2-yl)-7-methyl-3-phenyl-5,6,7,8-tetrahydroimidazo[1,5-a]pyrazine-1-carboxamide]",+
